About 710 (0.99%) of roughly 72,000 compounds were called active. The inconclusive results got no clear call from the source; some entries with a clear call stand among them for comparison. The call rests on the fitted dose curve; in most records, active means well fitted inhibition curve with a large enough effect; inconclusive means small, poorly fitted or top-dose-only effect; inactive means no such curve, though single readings can be large or run the other way. Potencies beside an inconclusive call are fits to weak or partial responses and may not hold up.
Assay: qHTS Assay for Inhibitors of the ERK Signaling Pathway using a Homogeneous Screening Assay; further: nearly all actives have a fitted effect of over 55% in size
Conditions: HEK293-V1b, vasopressin-stimulated pERK AlphaScreen; activity, negative = inhibition: at 57.5 µM (top of the series) unless noted
Procedure, shortened: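 qHTS, compounds titrated on V1b-expressing HEK293 cells. Preincubation 30 min at 37C, vasopressin 25 nM for 5 min, lysis 10 min, bead incubation 5 hr at room temperature.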
On the % scale 0 is the no-effect control and ±100 the full control effect; potency means the concentration at half of the fitted maximal effect; tags describe the fitted curve by direction and shape.

Potency, inconclusive:
O=C(OCC(O)CO)c1ccccc1Nc1ccnc2cc(Cl)ccc12 (stereo not given) 15.8 µM [inhibitor, partial curve]
COc1ccc(C2=CC(c3ccc(OC)c(OC)c3)n3nnnc3N2)c(OC)c1 (stereo not given) 10 µM [inhibitor, partial curve]
Nc1nnc(SCc2coc(-c3ccc(Cl)cc3)n2)s1 7.94 µM [inhibitor, full curve, poor fit]
O=C(COC(=O)C1CC(=O)N(c2ccc3c(c2)OCCO3)C1)Nc1ccc2c(c1)CCC2 (stereo not given) 25.1 µM [inhibitor, single point]
Cc1ccc2nc(NC(=O)c3ccc(Cn4cc(Cl)cn4)o3)sc2c1 31.6 µM [inhibitor, single point]
O=C(c1ccc(C#Cc2ccccc2)o1)N1CCN(c2ccccn2)CC1 39.8 µM [inhibitor, single point]
CCn1c(=N)c(C(=O)NCCCOC)cc2c(=O)n3cccc(C)c3nc21 20 µM [inhibitor, partial curve]
Cc1ccc(N(CC(=O)N2CCn3c2nc2ccccc23)S(=O)(=O)c2c(C)n[nH]c2C)cc1 25.1 µM [inhibitor, partial curve, poor fit]
O=c1c(O)c(-c2ccc(O)cc2)oc2cc(O)ccc12 25.1 µM [inhibitor, partial curve]
COc1ccc(-c2nc(CS(=O)CC(=O)NCc3cccnc3)c(C)o2)cc1OC (stereo not given) 25.1 µM [inhibitor, partial curve]
NC(=O)CSc1nc2scc(-c3ccco3)c2c(=O)n1-c1ccccc1 5.01 µM [inhibitor, partial curve]
N#Cc1c(-c2ccco2)cc(-c2cccnc2)nc1N 20 µM [inhibitor, partial curve, poor fit]
O=C(C1CCN(c2nnc(-n3cccc3)s2)CC1)N1CCN(Cc2ccc3c(c2)OCO3)CC1 12.6 µM [inhibitor, partial curve]
CCOc1ccc(-c2[nH]ncc2Oc2ccccc2OCC)c(O)c1 15.8 µM [inhibitor, partial curve]
c1ccc(-c2nnc3sc(-c4ccncc4)nn23)cc1 25.1 µM [inhibitor, partial curve]
C[C@@](N)(Cc1ccc(O)c(O)c1)C(=O)O 39.8 µM [inhibitor, single point]
Cc1ccc(S(=O)(=O)C(C#N)c2nc3ccccc3nc2N2CCCC2)cc1 (stereo not given) 12.6 µM [inhibitor, partial curve]
Cc1cccc(NC2SC(=O)N(c3ccccc3)C2=O)c1 (stereo not given) 25.1 µM [inhibitor, single point]
COc1ccc(-c2cc(O)cc(O)c2)cc1 20 µM [inhibitor, partial curve]
CNc1ncncc1-c1ccccc1C(F)(F)F 39.8 µM [inhibitor, single point]
Cn1c(=O)n(C/C=C/c2ccccc2)c(=O)c2c1nc1n2CCCN1Cc1ccccc1 31.6 µM [inhibitor, single point]
COc1ccc(S(=O)(=O)NCc2ccccc2Cl)cc1OC 39.8 µM [inhibitor, single point]
O=C(CCCN1C(=O)CSc2ncccc21)N1CCN(c2cccc(C(F)(F)F)c2)CC1 12.6 µM [inhibitor, partial curve]
COc1ccc2c(c1)Cc1sc(NC(=O)c3cccs3)nc1-2 39.8 µM [inhibitor, single point]
CCCCCCn1c(C(C)NC(=O)c2ccco2)nc2ccccc21 (stereo not given) 39.8 µM [inhibitor, single point]
COC(=O)c1cc2sc(Cl)cc2n1CC(=O)Nc1ccc(OC)c(OC)c1OC 25.1 µM [inhibitor, single point]
CCc1nc(N)c(C#N)c(-c2cccnc2)c1C 39.8 µM [inhibitor, single point]
Cn1cccc1C(=O)N1CCC2(CC1)CCN(c1cccc(-c3ccccc3)c1)CC2 39.8 µM [inhibitor, single point]
Cc1ccc(CCNC(=O)CS(=O)Cc2nc(-c3cccc(C)c3)oc2C)cc1 (stereo not given) 31.6 µM [inhibitor, single point]
COc1ccc(-c2csc(NC(=O)c3cc(C)on3)c2C#N)cc1OC 1 µM [inhibitor, partial curve]
CCOC(=O)c1c(NC(=O)CSc2nnc(-c3ccco3)o2)sc(C(C)=O)c1C 31.6 µM [inhibitor, partial curve]
CCOC(=O)c1sc(NC(=S)n2cc(C)cn2)c(C(=O)OCC)c1C 12.6 µM [inhibitor, partial curve]
COc1cccc(-c2ccc3ncnc(NCc4cccnc4)c3c2)c1 31.6 µM [inhibitor, single point]
COc1ccc(-c2c3c(=O)n(C)c(=O)n(C)c3cn2-c2cc(OC)ccc2OC)cc1 39.8 µM [inhibitor, single point]
COc1cccc(Cn2c(=O)cnc3cnc(Nc4cccc(OC)c4)nc32)c1 25.1 µM [inhibitor, single point]
CN1C(=O)/C(=C2\SC(=S)N(C(CCC(=O)O)C(=O)O)C2=O)c2ccccc21 (stereo not given) 39.8 µM [inhibitor, partial curve]
COc1cccc(-c2nn3c(-c4cc(C)[nH]n4)nnc3s2)c1 20 µM [inhibitor, single point]
O=C(C(Cc1ccccc1)n1cccc1)N1CCN(Cc2ccccc2)CC1 (stereo not given) 31.6 µM [inhibitor, single point]
COCC(=O)N1CCC[C@@]2(CCN(C(=O)Nc3cccc(C#N)c3)C2)C1 25.1 µM [inhibitor, single point]
NCCCC(=O)N1c2ccccc2Sc2ccccc21 31.6 µM [inhibitor, single point]
CC(C)C(c1nnnn1C(C)(C)C)N1CCN(c2cccc(Cl)c2)CC1 (stereo not given) 15.8 µM [inhibitor, partial curve]
O=C(Nc1ccc(Cl)c(Cl)c1)c1ccncc1 15.8 µM [inhibitor, partial curve]
CS(=O)(=O)Nc1cccc(-c2ccc3ncnc(NC4CC4)c3c2)c1 15.8 µM [inhibitor, partial curve]
Nc1c(C(=O)NC2CC2)c2nc3ccccc3nc2n1-c1ccc2c(c1)OCO2 1 µM [inhibitor, full curve, poor fit]
CCOC(=O)CC(=O)Nc1nc2ccccc2s1 39.8 µM [inhibitor, single point]

Potency, inactive:
CC(=O)Oc1cc2c(c(C)c1OC(C)=O)CC=C1[C@]3(C)CC[C@]4(C)CC[C@@](C)(C(=O)O)CC4[C@]3(C)CC[C@]12C (stereo not given in full)
Cc1nc2nc(COc3ccccc3)nn2c(C)c1Cl
Clc1ccc(C2=Nn3c(nnc3-c3n[nH]c4c3CCC4)SC2)cc1
CCCN(Cc1cc2cc(OC)ccc2[nH]c1=O)C(=O)c1ccncc1
COC(=O)[C@@]1(Cc2ccc(F)cc2)[C@H]2c3cc(C(=O)N(C)C)n(C)c3C[C@H]2CN1C(=O)c1ccccc1
c1cncc(-c2nc(-c3ccc4c(c3)OCO4)cs2)c1
CC(=O)N1CCC2(CC1)CN(Cc1ccccc1)C2
CCOC(=O)CNC(=O)Nc1nnc(-c2ccc(OCC)cc2)o1
CCOC(=O)c1sc(NC(=O)CSc2nnc(C)s2)c(C(=O)OCC)c1C
O=C(Nc1ccc2oc(-c3ccccc3F)nc2c1)c1cncc(Br)c1
O=C(Nc1ccc2c(c1)OCO2)C1(S(=O)(=O)c2ccc(Cl)cc2)CC1
O=C(COc1ccc(S(=O)(=O)NC2CCCCC2)cc1Cl)NCc1cccnc1
FC(F)(F)c1cc(CN2CCC3(CCNCC3)CC2)cc(C(F)(F)F)c1
Oc1ccc(/C=C/c2cc(O)cc(O)c2)cc1
CC1(C)Cc2c(sc3c2c(=N)n(Cc2ccco2)c(=O)n3Cc2ccc(F)cc2)CO1
Cc1ccc(C)c2[nH]c(=O)c(C(c3nnnn3CCc3ccccc3)N3CCOCC3)cc12 (stereo not given)
CCCC1C(c2ccco2)NC(c2ccco2)CC1(C)O (stereo not given)

Potency, active:
CCOc1ccc(-c2nc(C#N)c(N3CCN(Cc4ccccc4)CC3)o2)cc1 15.8 µM
O=C(Nc1ccc(N2CCN(C(=O)c3ccccc3)CC2)cc1)c1cc2ccccc2o1 1 µM
CCCC(c1nnnn1Cc1ccc(F)cc1)N1CCN(C2CCCCC2)CC1 (stereo not given) 31.6 µM
O=C(/C=C/c1ccc(O)cc1)c1cccs1 15.8 µM
Cc1c(/N=C/c2ccco2)n(Cc2ccccc2)c2ccccc12 12.6 µM
COC(=O)c1cc(-c2ccc(OC)c(OC)c2)on1 7.94 µM

activity, negative = inhibition, inactive:
O=C(C[C@@H](c1ccccc1)N1CCCCC1)c1ccccc1 30.7% [at 11.5 µM]
C[C@H]1CC[C@H]2C(=O)N3[C@H](c4ccc(Br)cc4)[C@@H](C)CC[C@H]3C(=O)N2[C@@H]1c1ccc(Br)cc1 4.75% [at 11.5 µM]
